Laboratory results: patent publication US20250243278A1 (SHANGHAI HENLIUS BIOTECH, published 2025)

B1: 19c10-V4 (Fc fusion)
chain: EVQLLESGGGLVQPGGSLRLSCAASGSTFSKYAMGWFRQAPGKARGFVGAVTSAGSTWYEDSVKGRFTISRDNSKNTLYLQMNSLRAEDTAVYYCAATTIATMPWLMVSSRYAYWGQGTLVTVSS[skipping human IgG1 Fc]
notes: also called 19C10-V4 VHH-Fc
B2: 19C10 VHH-Fc (Fc fusion)
chain: B1 chain with E1Q, L5V, P14A, G42R, S74A, L78V, R86K, A87P, L120Q
notes: Bivalent VHH-Fc with human IgG1 Fc; also called parental clone
B3: 5E8 VHH-Fc (Fc fusion, human)
chain: QVKLEESGGGLVQAGGSLKLSCAASGRTFSSDSMAWFREAPGKARGFVAVVSRSAGSTWYEDSVKGRFTISRDNAKNTVYLQMNSLKPEDTAVYYCAATDIATMPWLMVSSRYDYWGQGTQVTVSS[skipping human IgG1 Fc]
notes: domain: Fc region including CH2 and CH3; Bivalent VHH-Fc with human IgG1 Fc, expressed in ExpiCHO
B4: 5H8 VHH-Fc (Fc fusion, human)
chain: B3 chain with L11Q, G16D, L18R, K19T, A23V
notes: as for B3
B5: 18B5 VHH-Fc (Fc fusion, human)
chain: B3 chain with K3Q, E5Q, K19T, A23T, R27I
notes: as for B3
B6: 14C4 VHH-Fc (Fc fusion, human)
chain: QVQLVESGGGVVQAGGSLRLSCAASGRTFSSYGMGWFRQAPRKARGFVGAVTSAGSTWYEDSVKGRFTISRDNAKNTVYLQMNSLKPEDTAVYYCAATTIATMPWLMVSSRYAYWGQGTQVTVSS[skipping human IgG1 Fc]
notes: as for B3
B7: 6H4 VHH-Fc (Fc fusion, human)
chain: B6 chain with V5Q, G10D, V11L, A14P, R19T, R27G, T28S, Y32D, G33S
notes: as for B3
B8: 7F3 VHH-Fc (Fc fusion, human)
chain: B6 chain with E6D, V11L, G16D, T28P, S30N, Y32W, G33S
notes: as for B3
B9: 7H7 VHH-Fc (Fc fusion, human)
chain: B6 chain with Q3K, V5E, V11L, R27S, S31K, G33A
notes: as for B3
B10: 14B12 VHH-Fc (Fc fusion, human)
chain: B6 chain with S30R, S31N, Y32F
notes: as for B3
B11: 20C11 VHH-Fc (Fc fusion, human)
chain: QVQLVESGGGLVQPGGSLRLSCAASELTLDYNIGWFRQAPRKARGFVGAVTSAGSTWYEDSVKGRFTISRDNAKNTVYLQMNSLKPEDTAVYYCAATTIATMPWLMVSSRYAYWGQGTQVTVSS[skipping human IgG1 Fc]
notes: as for B3
B12: 21F11 VHH-Fc (Fc fusion, human)
chain: QVQLVESGGGLVQPGGSLRLSCAASGDDFFTINAIDAIGWFRQAPRKARGFVGAVTSAGSTWYEDSVKGRFTISRDNAKNTVYLQMNSLKPEDTAVYYCAATTIATMPWLMVSSRYAYWGQGTQVTVSS[skipping human IgG1 Fc]
notes: as for B3

Biological target: T1, human B7H3 on A498 cells (human, UniProt Q5ZPR3 29-534)
T1 construct: Endogenous B7H3 of A498 human kidney carcinoma cells; also called B7H3 positive A498 cells; human B7H3+ A498 cells
T1 sequence: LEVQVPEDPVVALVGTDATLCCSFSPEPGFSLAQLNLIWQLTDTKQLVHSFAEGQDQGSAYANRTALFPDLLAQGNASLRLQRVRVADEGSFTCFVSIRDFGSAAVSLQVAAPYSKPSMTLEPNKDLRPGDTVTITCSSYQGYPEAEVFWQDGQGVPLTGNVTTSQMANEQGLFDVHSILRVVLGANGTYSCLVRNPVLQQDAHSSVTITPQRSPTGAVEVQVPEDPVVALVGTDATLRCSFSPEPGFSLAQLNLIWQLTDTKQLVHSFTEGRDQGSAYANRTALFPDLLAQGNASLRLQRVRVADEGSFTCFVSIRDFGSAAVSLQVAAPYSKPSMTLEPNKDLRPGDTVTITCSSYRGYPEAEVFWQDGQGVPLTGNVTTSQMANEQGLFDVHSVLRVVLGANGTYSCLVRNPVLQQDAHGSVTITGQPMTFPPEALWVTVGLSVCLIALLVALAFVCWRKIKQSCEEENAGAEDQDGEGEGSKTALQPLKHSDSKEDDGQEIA
Assay: flow cytometry, whole cell binding to B7H3+ A498 cells, MFI (FITC)

How did the EC50 turn out when B1 was run?
Its EC50 is 0.16 nM.

Biological target: T1, human B7H3 on A498 cells
Assay: flow cytometry, whole cell binding to B7H3+ A498 cells, MFI

How did the EC50 turn out when B2 was run?
Its EC50 is 0.254 nM.

Biological target: T1, human B7H3 on A498 cells
Assay: as above
Remark: another data set of the same source

Which EC50 does the source give for B3 here?
The EC50 was 0.451 nM.

How did the EC50 turn out when B4 was run?
The EC50 was 0.537 nM.

For B5, which EC50 is on record?
The EC50 was 0.679 nM.

How did the EC50 turn out when B6 was run?
The EC50 was 0.473 nM.

How did the EC50 turn out when B7 was run?
Its EC50 is 0.502 nM.

With B8 as the binder, how does the EC50 read?
Its EC50 is 0.599 nM.

With B9 as the binder, how does the EC50 read?
The EC50 was 0.272 nM.

For B10, which EC50 is on record?
The EC50 was 1.08 nM.

B2 was tested. Which EC50 did it give?
The EC50 was 0.356 nM.

B11 was tested. Which EC50 did it give?
The EC50 was 1.09 nM.

Which EC50 does the source give for B12 here?
Its EC50 is 0.779 nM.

Biological target: T2, recombinant human B7H3 extra cellular domain (ECD) protein (human, UniProt Q5ZPR3 29-461)
T2 construct: also called h-B7H3 ECD; h-B7H3; not shown: C-terminal poly-histidine tag or Fc tag
T2 sequence: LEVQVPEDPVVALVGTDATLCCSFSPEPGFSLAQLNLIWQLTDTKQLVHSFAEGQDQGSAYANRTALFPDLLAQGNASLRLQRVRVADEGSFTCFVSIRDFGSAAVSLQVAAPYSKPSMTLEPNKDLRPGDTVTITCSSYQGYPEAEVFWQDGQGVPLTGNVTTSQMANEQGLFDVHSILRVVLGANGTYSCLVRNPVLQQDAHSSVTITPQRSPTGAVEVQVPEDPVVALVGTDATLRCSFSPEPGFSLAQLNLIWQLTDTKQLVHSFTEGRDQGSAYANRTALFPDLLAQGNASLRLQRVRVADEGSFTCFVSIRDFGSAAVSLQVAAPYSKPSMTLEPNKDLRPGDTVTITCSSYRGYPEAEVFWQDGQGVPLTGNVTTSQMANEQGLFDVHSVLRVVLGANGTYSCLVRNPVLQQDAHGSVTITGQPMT
Assay: Octet binding assay, VHH-Fc form

B3 was tested. Which koff did it give?
The koff was 0.000303 s⁻¹.

And the kon?
The kon was 582000 M⁻¹ s⁻¹.

With B4 as the binder, how does the Kd read?
Its Kd is 0.617 nM.

What about the koff of the same binder?
The koff was 0.000301 s⁻¹.

What about the kon of the same binder?
The kon was 488000 M⁻¹ s⁻¹.

Which Kd does the source give for B5 here?
The Kd was 0.58 nM.

What about the koff of the same binder?
Its koff is 0.000284 s⁻¹.

What about the kon of the same binder?
The kon was 490000 M⁻¹ s⁻¹.

What does the source list for B6?
Kd: 0.664 nM; koff: 0.000286 s⁻¹; kon: 431000 M⁻¹ s⁻¹

Which results are given for B7?
Kd: 0.895 nM; koff: 0.000438 s⁻¹; kon: 490000 M⁻¹ s⁻¹

With B8 as the binder, how does the Kd read?
Its Kd is 1.48 nM.

What about the koff of the same binder?
Its koff is 0.000594 s⁻¹.

And the kon?
Its kon is 402000 M⁻¹ s⁻¹.

For B9, which Kd is on record?
The Kd was 1.43 nM.

What about the koff of the same binder?
The koff was 0.000693 s⁻¹.

And the kon?
Its kon is 485000 M⁻¹ s⁻¹.

How did the Kd turn out when B10 was run?
The Kd was 2.06 nM.

And the koff?
The koff was 0.000847 s⁻¹.

And the kon?
The kon was 410000 M⁻¹ s⁻¹.

How did the Kd turn out when B2 was run?
The Kd was 1.05 nM.

What about the koff of the same binder?
Its koff is 0.000479 s⁻¹.

And the kon?
Its kon is 457000 M⁻¹ s⁻¹.

Which Kd does the source give for B11 here?
The Kd was 1.01 nM.

And the koff?
Its koff is 0.000451 s⁻¹.

And the kon?
Its kon is 446000 M⁻¹ s⁻¹.

For B12, which Kd is on record?
The Kd was 1.23 nM.

What about the koff of the same binder?
Its koff is 0.000519 s⁻¹.

And the kon?
Its kon is 421000 M⁻¹ s⁻¹.

Residue numbers refer to the chain shown, from its start.
